Measurements taken from publication PMC3663898 (Antiviral research, 2013).

Experiments:
[1] = for Liver microsome metabolic stability (% remaining) human: microsomes, 1 h
[2] = for Liver microsome metabolic stability (% remaining) mouse: microsomes, 1 h
[3] = human, rat, mouse, 1 h
[4] = for Liver microsome metabolic stability (% remaining) rat: microsomes, 1 h
ER α-glucosidases = details: mouse, in vivo, ip, 75 mg/kg
rat ER α-glucosidase I = rat ER α-glucosidase I (Rattus norvegicus, UniProt O88941); experiment: biochemical

Row | Compound | Liver microsome metabolic stability (% remaining) human [1] [% remaining] | Liver microsome metabolic stability (% remaining) mouse [2] [% remaining] | drug remained in liver microsomes [3] | Liver microsome metabolic stability (% remaining) rat [4] [% remaining] | metabolic stability in human liver microsomes (in words) [1] | metabolic stability in mouse liver microsomes (in words) [2] | metabolic stability in rat liver microsomes (in words) [4] | Glc1Man4GlcNac1 glycan in sera compared to CM-10-18 (ratio Glc1Man4GlcNac1/Man4GlcNac1) (ER α-glucosidases) | hyper-glucosylated FOS (Glc1Man4GlcNac1) in sera (ER α-glucosidases) | IC50 (rat ER α-glucosidase I) [nM]
1 | OC[C@@H]1[C@@H](O)[C@H](O)[C@@H](O)CN1CCCCCCOc1cc(F)ccc1F [IHVR11029, (2R,3R,4R,5S)-1-(6-(2,5-difluorophenoxy)hexyl)-2-(hydroxymethyl)piperidine-3,4,5-triol] | 91 | 91 | 79-93% | 79 |  |  |  |  |  | 
2 | CC(C)(C)C(=O)N(CCCCCCN1C[C@H](O)[C@@H](O)[C@H](O)[C@H]1CO)C1CCCCC1 [IHVR17028, N-cyclohexyl-N-(6-((2R,3R,4R,5S)-3,4,5-trihydroxy-2-(hydroxymethyl)piperidin-1-yl)hexyl)pivalamide] | 42 | 59 |  | 27 | relatively more stable | relatively more stable | metabolically un-stable |  |  | 
3 | CC(C)(C)NC(=O)N(CCCCCCN1C[C@H](O)[C@@H](O)[C@H](O)[C@H]1CO)C1CCCCC1 [IHVR19029, 3-(tert-butyl)-1-cyclohexyl-1-(6-((2R,3R,4R,5S)-3,4,5-trihydroxy-2-(hydroxymethyl)piperidin-1-yl)hexyl)urea] | 93 | 87 | 79-93% | 92 |  |  |  | over 2 times | observed | 480 ± 170
